{
  "sequences": {"note": "Sequences of proteins named here, by UniProt entry; tags and fusion partners are left off.", "UniProt Q43125": "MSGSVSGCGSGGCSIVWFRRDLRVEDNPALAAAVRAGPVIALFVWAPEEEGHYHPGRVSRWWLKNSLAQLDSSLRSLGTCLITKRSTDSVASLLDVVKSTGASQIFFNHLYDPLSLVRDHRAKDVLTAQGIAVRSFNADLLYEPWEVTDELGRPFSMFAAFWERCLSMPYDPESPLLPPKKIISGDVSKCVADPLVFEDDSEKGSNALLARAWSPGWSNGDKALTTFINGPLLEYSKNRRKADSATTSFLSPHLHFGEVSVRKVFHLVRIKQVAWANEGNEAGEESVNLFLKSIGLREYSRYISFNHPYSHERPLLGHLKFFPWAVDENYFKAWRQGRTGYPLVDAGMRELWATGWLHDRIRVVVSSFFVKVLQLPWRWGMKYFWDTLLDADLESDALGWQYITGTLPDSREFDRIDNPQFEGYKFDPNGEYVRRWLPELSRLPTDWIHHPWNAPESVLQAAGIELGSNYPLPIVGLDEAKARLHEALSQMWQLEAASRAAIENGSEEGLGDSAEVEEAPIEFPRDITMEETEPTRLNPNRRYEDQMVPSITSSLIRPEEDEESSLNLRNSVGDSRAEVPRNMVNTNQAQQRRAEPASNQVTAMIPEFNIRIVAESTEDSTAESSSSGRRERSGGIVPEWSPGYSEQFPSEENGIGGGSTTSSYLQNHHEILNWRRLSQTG", "UniProt Q96524": "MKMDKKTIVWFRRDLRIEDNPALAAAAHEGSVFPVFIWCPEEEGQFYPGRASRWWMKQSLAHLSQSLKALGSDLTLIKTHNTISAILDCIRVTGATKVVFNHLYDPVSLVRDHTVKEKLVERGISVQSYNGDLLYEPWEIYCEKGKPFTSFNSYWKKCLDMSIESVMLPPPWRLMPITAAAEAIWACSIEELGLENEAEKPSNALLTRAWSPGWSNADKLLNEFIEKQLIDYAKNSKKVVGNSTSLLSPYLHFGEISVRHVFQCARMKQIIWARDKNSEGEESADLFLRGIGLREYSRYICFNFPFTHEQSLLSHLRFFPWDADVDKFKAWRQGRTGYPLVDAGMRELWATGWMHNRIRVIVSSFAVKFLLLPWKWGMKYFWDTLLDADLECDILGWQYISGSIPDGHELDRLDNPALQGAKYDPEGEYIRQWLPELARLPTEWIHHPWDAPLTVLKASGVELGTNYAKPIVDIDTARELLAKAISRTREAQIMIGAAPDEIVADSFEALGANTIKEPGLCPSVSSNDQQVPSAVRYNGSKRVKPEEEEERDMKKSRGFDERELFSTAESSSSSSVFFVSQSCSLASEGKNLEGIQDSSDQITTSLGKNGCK"},
  "source": "paper PMC9535003",
  "key": {"[1]": {"biological_target": "T1, PRR9-NanoLucN (Arabidopsis) (UniProt Q8L500)", "T1 sequence": "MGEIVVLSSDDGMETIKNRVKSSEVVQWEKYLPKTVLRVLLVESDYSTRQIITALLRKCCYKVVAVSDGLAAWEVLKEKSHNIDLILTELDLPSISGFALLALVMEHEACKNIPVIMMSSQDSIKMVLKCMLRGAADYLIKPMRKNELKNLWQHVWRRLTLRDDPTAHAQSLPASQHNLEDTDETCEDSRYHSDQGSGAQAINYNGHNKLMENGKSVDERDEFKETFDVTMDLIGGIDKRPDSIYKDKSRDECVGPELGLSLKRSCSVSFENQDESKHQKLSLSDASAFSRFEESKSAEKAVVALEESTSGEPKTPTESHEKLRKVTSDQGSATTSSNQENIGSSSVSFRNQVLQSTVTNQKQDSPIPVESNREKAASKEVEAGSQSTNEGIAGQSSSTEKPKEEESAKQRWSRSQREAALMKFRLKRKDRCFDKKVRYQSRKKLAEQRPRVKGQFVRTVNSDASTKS", "experiment": "split reporter; split nano-luciferase complementation: NanoLucN and NanoLucC fusions co-expressed in N. benthamiana leaves for 3 days; furimazine, CCD camera"}, "PRR9-nYFP (Arabidopsis)": {"biological_target": "T2, PRR9-nYFP (Arabidopsis) (UniProt Q8L500)", "T2 sequence": "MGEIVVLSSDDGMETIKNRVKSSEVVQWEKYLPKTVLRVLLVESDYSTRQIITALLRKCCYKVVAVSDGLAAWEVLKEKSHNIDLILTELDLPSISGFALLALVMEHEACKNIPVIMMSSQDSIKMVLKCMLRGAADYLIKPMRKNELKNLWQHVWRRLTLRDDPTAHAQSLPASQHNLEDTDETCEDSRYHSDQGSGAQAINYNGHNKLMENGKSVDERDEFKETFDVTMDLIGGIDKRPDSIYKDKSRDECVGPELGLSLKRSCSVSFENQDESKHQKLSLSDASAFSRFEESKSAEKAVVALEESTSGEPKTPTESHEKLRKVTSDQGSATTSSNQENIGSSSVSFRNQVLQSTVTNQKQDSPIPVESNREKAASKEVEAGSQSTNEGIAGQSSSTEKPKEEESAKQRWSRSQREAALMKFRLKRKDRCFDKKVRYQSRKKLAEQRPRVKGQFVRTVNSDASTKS", "experiment": "split reporter; BiFC: nYFP and cYFP fusions and H2B-mCherry co-infiltrated (5:5:1) into N. benthamiana leaves for 3 days; confocal microscopy"}, "PRR9-GFP (Arabidopsis) [2]": {"biological_target": "T3, PRR9-GFP (Arabidopsis) (UniProt Q8L500)", "T3 sequence": "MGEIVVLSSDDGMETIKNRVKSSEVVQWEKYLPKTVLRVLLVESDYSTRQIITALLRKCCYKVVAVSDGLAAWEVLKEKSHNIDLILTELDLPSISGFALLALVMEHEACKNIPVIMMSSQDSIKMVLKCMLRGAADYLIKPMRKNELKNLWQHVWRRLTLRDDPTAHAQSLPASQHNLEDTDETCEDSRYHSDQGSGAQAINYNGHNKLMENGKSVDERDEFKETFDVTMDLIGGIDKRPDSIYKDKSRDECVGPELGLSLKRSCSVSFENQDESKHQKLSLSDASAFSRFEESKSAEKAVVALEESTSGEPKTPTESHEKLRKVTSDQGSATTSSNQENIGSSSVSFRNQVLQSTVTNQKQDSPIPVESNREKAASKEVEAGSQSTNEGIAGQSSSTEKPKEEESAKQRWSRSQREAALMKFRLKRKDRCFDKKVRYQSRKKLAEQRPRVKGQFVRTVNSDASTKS", "experiment": "co-IP; competitive co-IP: PRR9-GFP immunoprecipitated, TPL-FLAG or PPK1-Flag co-expressed with or without CRY2-HA; blots with GFP, Flag and HA antibodies"}, "PRR9-MBP (Arabidopsis)": {"biological_target": "T4, PRR9-MBP (Arabidopsis) (UniProt Q8L500)", "T4 sequence": "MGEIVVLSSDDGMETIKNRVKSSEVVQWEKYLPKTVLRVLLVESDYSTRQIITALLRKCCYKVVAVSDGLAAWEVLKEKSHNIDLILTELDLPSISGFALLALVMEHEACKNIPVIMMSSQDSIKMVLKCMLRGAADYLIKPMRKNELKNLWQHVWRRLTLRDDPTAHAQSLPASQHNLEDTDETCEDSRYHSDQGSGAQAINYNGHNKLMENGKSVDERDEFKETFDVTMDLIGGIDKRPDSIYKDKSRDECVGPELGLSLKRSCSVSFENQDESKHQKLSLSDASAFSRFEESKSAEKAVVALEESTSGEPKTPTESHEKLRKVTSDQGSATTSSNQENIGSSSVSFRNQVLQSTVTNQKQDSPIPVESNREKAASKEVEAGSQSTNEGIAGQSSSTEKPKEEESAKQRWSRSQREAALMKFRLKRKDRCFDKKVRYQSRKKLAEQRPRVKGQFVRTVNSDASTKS", "experiment": "pull-down; recombinant PRR9-MBP or MBP resin incubated with extracts of tobacco leaves or Arabidopsis seedlings, 4 C, 2 h; pulled-down proteins detected with GFP antibody; GFP-CRY2 seedlings exposed to dark, red or blue light (10 umol m^-2 s^-1) for 10 min; only the target purified"}, "[3]": {"biological_target": "T5, PRR9-GFP (CsVMVpro:PRR9-GFP transgenic line) (Arabidopsis) (UniProt Q8L500)", "T5 sequence": "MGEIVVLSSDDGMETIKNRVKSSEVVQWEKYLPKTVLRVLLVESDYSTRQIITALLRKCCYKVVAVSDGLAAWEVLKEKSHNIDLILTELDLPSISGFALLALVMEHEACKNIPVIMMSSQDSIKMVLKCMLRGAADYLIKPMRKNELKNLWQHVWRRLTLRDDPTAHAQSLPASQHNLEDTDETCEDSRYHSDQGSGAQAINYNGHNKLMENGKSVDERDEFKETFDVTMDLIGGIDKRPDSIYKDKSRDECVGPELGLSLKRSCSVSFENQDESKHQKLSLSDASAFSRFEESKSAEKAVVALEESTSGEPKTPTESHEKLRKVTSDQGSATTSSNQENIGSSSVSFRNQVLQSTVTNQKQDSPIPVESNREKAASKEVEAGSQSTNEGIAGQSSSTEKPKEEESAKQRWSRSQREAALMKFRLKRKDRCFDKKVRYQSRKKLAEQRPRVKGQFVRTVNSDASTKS", "experiment": "co-IP; etiolated seedlings of the Arabidopsis CsVMVpro:PRR9-GFP line, with blue light; GFP-Trap beads; endogenous CRY2 detected"}, "[4]": {"biological_target": "CRY1 (GFP-tagged) (Arabidopsis) (UniProt Q43125)", "experiment": "co-IP; co-expression in N. benthamiana leaves, 3 days; GFP-Trap beads, 4 C, 1 h, 150 mM NaCl, 0.2% NP-40; blots with GFP and HA antibodies; for CRY2-GFP and PRR9-HA also after 10 min dark, red or blue light (10 umol m^-2 s^-1)"}, "CRY2-GFP (Arabidopsis)": {"biological_target": "CRY2-GFP (Arabidopsis) (UniProt Q96524)", "experiment": "co-IP; co-expression in N. benthamiana leaves, 3 days; GFP-Trap beads, 4 C, 1 h, 150 mM NaCl, 0.2% NP-40; blots with GFP and HA antibodies; for CRY2-GFP and PRR9-HA also after 10 min dark, red or blue light (10 umol m^-2 s^-1)"}, "PRR9-GFP (Arabidopsis) [5]": {"biological_target": "T3, PRR9-GFP (Arabidopsis)", "experiment": "co-IP; competitive co-IP: PRR9-GFP immunoprecipitated, TPL-FLAG or PPK1-Flag co-expressed with or without CRY2-HA; blots with GFP, Flag and HA antibodies", "remark": "listed apart in the source"}},
  "note": "Like-named read-outs stand apart in the source and are kept apart here. Results are given in words; binding and its absence hold for the method and conditions named. In cells and extracts the contact can be indirect. Some entries that bind do so weakly or less than the wild type. Tags and fused reporters may be left off the sequences shown.",
  "data": [
    {"molecule": "CRY1-NanoLucC (from UniProt Q43125 1-681)", "values": [
      {"measurement": "binding", "setting": "[1]", "result": "no binding"}
    ]},
    {"molecule": "CRY1-cYFP (from UniProt Q43125 1-681)", "values": [
      {"measurement": "binding", "setting": "PRR9-nYFP (Arabidopsis)", "result": "no binding"}
    ]},
    {"molecule": "CRY2-HA (from UniProt Q96524 1-612)", "values": [
      {"measurement": "binding", "setting": "PRR9-GFP (Arabidopsis) [2]", "result": "binds"}
    ]},
    {"molecule": "CRY2-NanoLucC (from UniProt Q96524 1-612)", "values": [
      {"measurement": "binding", "setting": "[1]", "result": "binds"}
    ]},
    {"molecule": "CRY2-cYFP (from UniProt Q96524 1-612)", "values": [
      {"measurement": "binding", "setting": "PRR9-nYFP (Arabidopsis)", "result": "binds"}
    ]},
    {"molecule": "GFP-CRY2 (from UniProt Q96524 1-612)", "values": [
      {"measurement": "binding", "setting": "PRR9-MBP (Arabidopsis)", "result": "binds"}
    ]},
    {"molecule": "endogenous CRY2 (from UniProt Q96524 1-612)", "values": [
      {"measurement": "binding", "setting": "[3]", "result": "binds"}
    ]},
    {"molecule": "PRR9-HA (protein, UniProt Q8L500 1-468) MGEIVVLSSDDGMETIKNRVKSSEVVQWEKYLPKTVLRVLLVESDYSTRQIITALLRKCCYKVVAVSDGLAAWEVLKEKSHNIDLILTELDLPSISGFALLALVMEHEACKNIPVIMMSSQDSIKMVLKCMLRGAADYLIKPMRKNELKNLWQHVWRRLTLRDDPTAHAQSLPASQHNLEDTDETCEDSRYHSDQGSGAQAINYNGHNKLMENGKSVDERDEFKETFDVTMDLIGGIDKRPDSIYKDKSRDECVGPELGLSLKRSCSVSFENQDESKHQKLSLSDASAFSRFEESKSAEKAVVALEESTSGEPKTPTESHEKLRKVTSDQGSATTSSNQENIGSSSVSFRNQVLQSTVTNQKQDSPIPVESNREKAASKEVEAGSQSTNEGIAGQSSSTEKPKEEESAKQRWSRSQREAALMKFRLKRKDRCFDKKVRYQSRKKLAEQRPRVKGQFVRTVNSDASTKS", "values": [
      {"measurement": "binding", "setting": "[4]", "result": "no binding"},
      {"measurement": "binding", "setting": "CRY2-GFP (Arabidopsis)", "result": "binds"}
    ]},
    {"molecule": "TPL-FLAG (protein, UniProt Q94AI7 1-1131) MSSLSRELVFLILQFLDEEKFKETVHKLEQESGFFFNMKYFEDEVHNGNWDEVEKYLSGFTKVDDNRYSMKIFFEIRKQKYLEALDKHDRPKAVDILVKDLKVFSTFNEELFKEITQLLTLENFRENEQLSKYGDTKSARAIMLVELKKLIEANPLFRDKLQFPTLRNSRLRTLINQSLNWQHQLCKNPRPNPDIKTLFVDHSCGPPNGARAPSPVNNPLLGGIPKAGGFPPLGAHGPFQPTASPVPTPLAGWMSSPSSVPHPAVSAGAIALGGPSIPAALKHPRTPPTNASLDYPSADSEHVSKRTRPMGISDEVNLGVNMLPMSFSGQAHGHSPAFKAPDDLPKTVARTLSQGSSPMSMDFHPIKQTLLLVGTNVGDIGLWEVGSRERLVQKTFKVWDLSKCSMPLQAALVKEPVVSVNRVIWSPDGSLFGVAYSRHIVQLYSYHGGEDMRQHLEIDAHVGGVNDISFSTPNKQLCVITCGDDKTIKVWDAATGVKRHTFEGHEAPVYSVCPHYKENIQFIFSTALDGKIKAWLYDNMGSRVDYDAPGRWCTTMAYSADGTRLFSCGTSKDGESFIVEWNESEGAVKRTYQGFHKRSLGVVQFDTTKNRYLAAGDDFSIKFWDMDAVQLLTAIDGDGGLQASPRIRFNKEGSLLAVSGNENVIKIMANSDGLRLLHTFENISSESSKPAINSIAAAAAAAATSAGHADRSANVVSIQGMNGDSRNMVDVKPVITEESNDKSKIWKLTEVSEPSQCRSLRLPENLRVAKISRLIFTNSGNAILALASNAIHLLWKWQRNERNATGKATASLPPQQWQPASGILMTNDVAETNPEEAVPCFALSKNDSYVMSASGGKISLFNMMTFKTMATFMPPPPAATFLAFHPQDNNIIAIGMDDSTIQIYNVRVDEVKSKLKGHSKRITGLAFSNVLNVLVSSGADAQLCVWNTDGWEKQRSKVLPLPQGRPNSAPSDTRVQFHQDQAHFLVVHETQLAIYETTKLECMKQWAVRESLAPITHATFSCDSQLVYASFMDATVCVFSSANLRLRCRVNPSAYLPASLSNSNVHPLVIAAHPQEPNMFAVGLSDGGVHIFEPLESEGKWGVAPPAENGSASGAPTAPSVGASASDQPQR", "values": [
      {"measurement": "binding", "setting": "PRR9-GFP (Arabidopsis) [5]", "result": "binds"}
    ]}
  ]
}
